One test has as its system NCI-H226 lung. As to the kind of experiment: NCI-60 one-dose screen, 48 h (100 = growth as untreated, 0 = no growth, -100 = all killed). As to conditions: 25 µM.
A further test concerns NCI-H322M lung. The description is as above. As to conditions: 0.25 µM.

Some structures have more than one record in an assay (separate samples or runs), and their calls can disagree.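 Negative percent growth values reflect cell death: -40 means 40% of the cells present at the start died, and -100 means all died.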 Some entries of the source have several records that differ or are many. They are shown here; other results are not. How the source made its calls: active means growth percent below 10; inactive means the rest. The source may hold further records. The screen tested this drug many times, at the concentration stated with the values; each value is one run. Marks such as (2×) give the number of equal values in this list.

Consider `COc1cccc2c1C(=O)c1c(O)c3c(c(O)c1C2=O)C[C@@](O)(C(=O)CO)C[C@@H]3OC1CC(N)C(O)C(C)O1` (stereo not given in full), for which the growth result with NCI-H226 lung (runs of 1992) is “active: -26.6 (2×), -68, -14.4, 1.75, -57, -64.8, -39.9, -43.6, -68.4, -67, -22.7, -0.455, 7.36, -66.1, -60.2 (2×), -54.6, -48, -31.8, -50.7, -69.5, -79.1, -72, -57.1, -75.1, -10.3, -35.6, -71.5, -62.6, -74.1, -72.1, -73.2, -76.5, -76.3, -82.8, -86.5, -47.8, -37.3, -40.1, -50.1, -27.9, -24.8, -74.8, -76 (2×), -82.7 (2×), -86.2, -37.2, -43, -42.9, -38.7, -36.2, -6.84, -36.1, -63.2, -59.8 (2×), -53.9, -51.4, -69.6, -22.4, -28.5, -51.9, -47.9, -49.7, -63.7, -75.3, -83.2, -78.9, -89.3, -91.3, -66.5 (2×), -60.3, -53, -78.3, -84, -81.7, -69.4, -71.3, -64.6, -50.8, -48.5, -67.4 (2×), -68.6, -54.7, -81.5, -73.8, -74.9, -57.8, -64.1, -62.1, -69.9, -40.5, -57.5, -64, -42.3, -69.3, -84.3, -33.9, -62.8% and inactive: 27.6%”; in the test with NCI-H226 lung (runs of 1993) it was “active: -46.4, -51.8, -56.1 (2×), -21, -22, -49.4, -57, -37, -19.2, -19.7, -60.8, -72.8, -58.6, -48.2, -10.9, -8.56, -5.38, -30, -32.5, -60.5, -74.6, -45.4, -39.4, -8.36, -37.6, -38.9, -32.2, -37.5, -58.3, -50.7, -55, -40.7, -40.6, -46.3, -44.2, -66.1, -36.9, -26.2, -42.5, -43.3, -34.9, -51.1, -33.6% and inactive: 21.3%”; in the test on NCI-H226 lung (runs of 1994), “active: -53.5, -36.7, -36.3, -36, -51.4, -44, -42.2, -53.3, 3.5, -57.6, -32.6, -18.2, -52.5, -28.7, -60.9, -60.6, -19.9, -30.6, -1.34, -34.3, -59.6, -64.3, -77.3, -29.9, -35.7, -50, -52.3, -55.1, -0.422, -54, -58.9% and inactive: 57.9%”; in the test with NCI-H226 lung (runs of 1995), “active: -25.8, -34.3, -57.7 (2×), -35, -42.5, -46.1, -42.2, -25.6, -39.9, -37.6, -36.1, -30.9, -21.5, -36.2, -29.2, -31.4, -36.8, -36.5, -41.6, -63.7, -56.3, -71.2, -67.4, -72.4, -88.8, -48.3, -3.89, -50.8, -64.8, -16.3, 4.01, -2.37, -37.5, 0.651, 3.46, 1.27%”; in the test with NCI-H226 lung (runs of 1996), “active: -19.7, -30.7 (2×), -23.3, -17.1, -5.65, -19.5, -29.1, -59.6, -58.1, -39.4, -54.6, -17.9, -34.2, -24.6, -40.9, -21.1, -32.4, -31.2, -17.5, -44.3, -56.7, -44.5, -55.7, -60.1, -49.3, -73.4, -47.5, -71.5, -63.7, -76.6, -72, -65.6, -49.5, -61, -19, -69.8, -25.6, -9.35, 9.38, -31.5, -1.43, -26.8, -27.2, -15.3, -8.39, -18.3, 2.41, -13.8, 3.6, -39.8, -22, 0.806% and inactive: 22.5, 87.7, 39.1, 14.3%”; in the test with NCI-H226 lung (runs of 1997) it was “active: -9.42, -33.8, -42.8, -30.8, -30.1, -50.9, -54.7 (2×), 2.28, -15.3, -25, -60.5, -35.2, -47.7, -36.1, -47.6 (2×), -68.7, -62.7, -33.1, -54.3, -59.1, -25.4, -43.6, -61.9, -67.8, -63.5, -62.1, -74.6, -65.7, -58.6, -70.6, 6.85, -6.16, -56.7, 7.06, -15.2% and inactive: 11%”. In addition, the growth result with NCI-H226 lung (runs of 1998) is “active: -0.781, -19.5, -19.8, -49.3, -37.7 (2×), -42.5, -34.4, -10.1, -54, -27.3, -18.8, -16.6, -42, -36.7, -13.1, -24.6, -22.9, -16.5%”; in the test on NCI-H226 lung (runs of 1999) it was “active: -32.7, -43.2, -9.66, -19.5, -42.4, -78.8, -82.6, -94.3, -9.27, -75.6, -88.5, 0.863%”; with NCI-H226 lung (runs of 2000), “active: -100, -98.5, -27.5, -88.2%”; in the test on NCI-H322M lung (runs of 2006), “inactive: 77.3%, 71%”; with NCI-H322M lung (runs of 2007), “inactive: 82.1, 74.8, 85.7, 75.5, 76.1, 81.9, 83.5, 77.8, 92.1, 86.9, 75.8, 85, 91.2 (2×), 74.2, 94.9, 146, 94.2, 57.7, 97.2, 90.2 (2×), 89 (2×), 96.8, 92.4, 87.2, 69.4, 92.9, 91.3, 93.9, 84.5, 88.3 (2×), 84.9, 89.9, 86.2, 79, 94.1%”; with NCI-H322M lung (runs of 2008) it was “inactive: 85.4, 84.1, 59, 98.7, 85.2, 91.3, 90.3 (2×), 79.7 (2×), 83.1, 77, 80.8, 89.3, 92.8, 67.9, 89.5, 68.9, 53.8, 70.6, 74.1, 83.9, 80.9, 75.3, 86.5, 96.6, 74.3 (2×), 108, 95.1, 82.5, 61.9, 79.8, 80.1 (2×), 64, 67.1, 65.9, 82.7, 91.2, 86.9, 100, 96.9, 80.3, 82.1, 98, 103, 76.4, 68.8, 79.2, 80.5, 86.1, 83.5%”. For the same molecule, the growth result was “inactive: 82.3 (2×), 73.9 (2×), 73.5, 78.1, 77.9, 76.7, 82.1, 87.4, 72.8, 89.1, 82.4, 86.8, 97.9, 80 (2×), 76.1, 88, 91.3, 81.9, 90.2, 84.8, 82.2, 77, 84.5, 87.9, 79.7, 78.2, 68.8, 88.9 (3×), 88.6, 92.4, 84.3, 97.3, 78.5, 79.5, 80.2, 77.3, 94.9, 95.9, 105, 80.3, 76.8, 86.7 (2×), 104, 81.4, 67.4 (2×), 98.8, 92.9, 75.5, 94.1, 95.5, 91.5, 89.2, 91.8, 79.9, 101, 97.7, 84.6%” in the test on NCI-H322M lung (runs of 2009); “inactive: 83.6, 88.5, 80.1, 86.5, 92, 80, 90.9, 90.8, 80.8, 76.8, 67.8, 75.1, 71.4, 68.5, 70.9, 106, 64.9, 72.3, 93.7, 84.3 (2×), 82.9 (2×), 89.9 (2×), 86.4, 91.2, 88.7, 76.6, 74.3, 72, 88.9, 91.3, 83.4 (2×), 94.4, 77.9, 80.7, 69.9, 88.2 (2×), 85.6, 98.3, 92.1, 110, 90.6, 94, 93.1, 85.2, 89.7, 97.7, 95.8%” in the test on NCI-H322M lung (runs of 2010); “inactive: 102 (5×), 93.6, 83.5, 87.3, 95.8, 104 (3×), 98.1, 84, 93.1 (2×), 99.6, 108, 96.1, 97.6, 97.9, 93, 99.2, 99.9, 88.9, 101 (3×), 98.6, 89, 103, 96.7, 100 (3×), 94.8, 82.1, 106, 83.3, 92, 90.9 (2×), 98.4, 88.8, 97.5, 87.2, 90.5, 89.1, 94.1, 95.6, 82.4, 93.2, 97.1, 91.9, 98.2, 97.7, 92.9, 94.5%” in the test on NCI-H322M lung (runs of 2011).

(Values after PubChem BioAssay (NCI).)
